In publication PMC4336329 (PLoS ONE, 2015):
Hit rate of the full screen: of about 310,000 compounds, about 2,200 (0.71%) showed an effect of 50% or more. The effect is printed as a negative number. This is one part of the list.

What follows are compounds tested against human ether-à-go-go-related gene (hERG) potassium channel (human, UniProt Q12809) (assay: primary screen, population patch clamp on CHO cells stably expressing hERG).
human ether-à-go-go-related gene (hERG) potassium channel, sequence (Q12809 whole entry, looked up): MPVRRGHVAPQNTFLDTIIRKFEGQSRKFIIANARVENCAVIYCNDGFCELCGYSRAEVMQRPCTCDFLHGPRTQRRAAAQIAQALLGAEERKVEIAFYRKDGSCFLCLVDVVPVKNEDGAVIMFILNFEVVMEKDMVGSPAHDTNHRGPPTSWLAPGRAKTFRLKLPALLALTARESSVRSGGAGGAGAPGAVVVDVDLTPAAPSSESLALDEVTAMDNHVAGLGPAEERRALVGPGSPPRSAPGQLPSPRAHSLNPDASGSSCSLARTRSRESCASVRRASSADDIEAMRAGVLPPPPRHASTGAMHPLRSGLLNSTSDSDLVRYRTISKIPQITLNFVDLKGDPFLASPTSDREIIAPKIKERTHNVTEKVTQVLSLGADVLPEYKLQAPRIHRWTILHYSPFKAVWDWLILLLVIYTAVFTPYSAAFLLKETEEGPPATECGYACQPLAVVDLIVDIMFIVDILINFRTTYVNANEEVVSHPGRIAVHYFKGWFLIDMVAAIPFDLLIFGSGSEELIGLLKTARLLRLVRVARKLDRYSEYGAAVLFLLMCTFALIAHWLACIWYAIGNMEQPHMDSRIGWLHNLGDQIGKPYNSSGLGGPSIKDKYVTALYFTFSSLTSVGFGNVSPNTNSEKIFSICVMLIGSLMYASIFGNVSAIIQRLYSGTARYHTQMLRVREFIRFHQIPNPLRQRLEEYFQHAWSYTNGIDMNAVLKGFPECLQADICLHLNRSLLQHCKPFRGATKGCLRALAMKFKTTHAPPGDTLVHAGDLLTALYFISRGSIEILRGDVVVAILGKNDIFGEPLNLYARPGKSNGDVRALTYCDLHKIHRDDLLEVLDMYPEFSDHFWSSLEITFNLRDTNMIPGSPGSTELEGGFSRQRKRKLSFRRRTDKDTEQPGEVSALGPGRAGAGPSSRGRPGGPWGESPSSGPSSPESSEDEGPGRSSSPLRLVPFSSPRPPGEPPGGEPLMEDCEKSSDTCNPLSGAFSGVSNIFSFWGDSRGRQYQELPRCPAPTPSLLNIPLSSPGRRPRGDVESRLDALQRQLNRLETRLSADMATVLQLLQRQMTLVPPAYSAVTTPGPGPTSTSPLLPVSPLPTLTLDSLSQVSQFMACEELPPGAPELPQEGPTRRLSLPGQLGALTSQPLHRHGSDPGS

| Structure (SMILES) | hERG current change (%, negative = inhibition) at 1uM |
| --- | --- |
| COC(=O)c1cc2occc2n1CC(=O)N(C)C1CCCCC1 | 5.68% |
| CC(=O)N1NC(=Nc2ccccc2)SC1(C)C | 9.6% |
| Cc1cccc(CSCCNC(=O)COc2ccc(Cl)cc2)c1 | 2.34% |
| O=C(c1cccnc1)c1cc2ccccc2[nH]1 | 11.3% |
| CC(=O)Nc1cc(C(=O)NCc2ccco2)ccc1Sc1ccc(C)cc1 | 2.87% |
| CCc1ccccc1NC(=O)CSc1nnc(-c2cc(C)[nH]n2)n1N | -10.7% |
| O=c1c2ccccc2nc(-c2ccc(Cl)cc2Cl)n1-c1ccncc1 | 9.24% |
| COc1ccc(-n2c(C)c([N+](=O)[O-])c3ccc(O)c(CN4CCCCC4)c32)cc1.Cl | 10.9% |
| O=C(Nc1ccc(F)cc1)C1CCCO1 (stereo not shown) | 13.5% |
| Cc1ccc(C(C)C)c(OCCNC(=S)Nc2cccc3ccccc23)c1 | 11.4% |
| CSc1ccc(/C=C(\C#N)C(=O)NC2CCCCC2)cc1 | 4.17% |
| CC1CC(=O)c2cnc(Nc3ccccc3)nc2C1 (stereo not shown) | -8.21% |
| CCCCC1(CC(=O)OC)C(=O)N(c2ccccc2)N(c2ccccc2)C1=O | 16% |
| O=C(CCCN1C(=O)c2ccccc2C1=O)NCc1cccnc1 | -8.54% |
| CCCCN(C(=N)N1CCCCC1)c1nc(C)c([N+](=O)[O-])c(=O)[nH]1 | 7.49% |
| C/C(=N\OC(=O)C1CC1)C1CC1c1ccc(F)cc1 (stereo not shown) | 0.718% |
| Cc1cc(C(=O)CN2C(=O)c3cccc(N)c3C2=O)c(C)n1Cc1cccs1 | 11.5% |
| CCOC(=O)c1cc2occc2n1CC(=O)NC1CCCCC1C (stereo not shown) | 15.4% |
| COc1ccc(Cn2c(C)nc([N+](=O)[O-])c2SCC(=O)O)cc1[N+](=O)[O-] | 16.8% |
| Cc1[nH]n(-c2ccccc2)c(=O)c1N=Nc1ccc2c(c1)OCCO2 | 10.9% |
| CCOC(=O)C(CCc1nnc(N)s1)C(=O)OCC | -21% |
| O=C(Nc1ccc(Cl)cc1)Nc1nc(-c2ccccc2O)cs1 | 13.2% |

| Structure (SMILES) | hERG current change (%, negative = inhibition) at 1uM |
| --- | --- |
| C[C@H](NC(=O)[C@H]1N2C(=O)c3ccccc3C2SC1(C)C)C(=O)N1CCC[C@H]1C(=O)O (stereo partly shown) | 12% |
| Cc1c(C(N)=O)sc2ncn(CC(=O)OC(C)C)c(=O)c12 | 14.6% |
| CCCNS(=O)(=O)c1ccc(OCC(=O)N2CCN(Cc3ccccc3)CC2)cc1 | -3.97% |
| CC(C)C[C@@H](C)C(=O)N(Cc1ccccc1)c1ccccc1 | 15.2% |
| O=C(O)c1ccc(NC(=O)c2cccc(C(=O)Nc3ccc(C(=O)O)cc3)n2)cc1 | 8.46% |
| CCCn1nnnc1NCc1cc(Br)ccc1OC | 12.5% |
| CC(C)CCNC(=O)C(c1ccncc1)N(CC1CCCO1)C(=O)Cn1nnc(-c2ccc(F)cc2)n1 (stereo not shown) | -18.8% |
| Cc1ccc(N=Cc2c(C)[nH]n(-c3ccccc3)c2=O)nc1 | 5.06% |
| Cc1ccc(NC(=O)c2cccc3cccnc23)cc1 | 9.44% |
| CCOC(=O)NNc1ccc2nonc2c1[N+](=O)[O-] | 6.83% |
| CCC(N=c1cc(-c2ccc(OC)c(OC)c2)oc2ccc(C)cc12)C(=O)O (stereo not shown) | 2.46% |
| COc1ccc([C@H]2CC(=O)C=C(c3ccc(Cl)c(C(F)(F)F)c3)C2)cc1 | 1.49% |
| Cc1ccc(F)cc1S(=O)(=O)NCc1ccc(N2CCN(C)CC2)cc1 | 6.76% |
| CCCn1nc(C(=O)N2CC(=O)Nc3ccccc32)c2ccccc2c1=O | 3.75% |
| CC(=O)c1ccc(OCC(=O)NCc2ccc(F)cc2)cc1 | 8.88% |
| CCN(CC)CCCNC(=O)CCC(=O)NNc1nc2ccccc2c2nc(C)nn12 | 9.18% |
| Cc1ccc(N(CC(=O)NCCSc2nc3ccccc3s2)S(=O)(=O)c2ccccc2)c(C)c1 | -3.12% |
| COC(=O)C(=O)/C=C(\O)c1c(C)cc(C)cc1C | 17.3% |
| S=C(NCCNC(=S)Nc1ccccc1)Nc1ccccc1 | 10.4% |
| COCc1cc(C)nc(SCC(=O)Nc2ccccc2C)c1C#N | 4.16% |
| OCCn1ccc(-c2ccccc2OCc2ccc(F)cc2)n1 | 11.3% |
| CC1CN(S(=O)(=O)c2cccc(C(=O)OC(C)C(=O)NC3CCCCC3C)c2)CC(C)O1 (stereo not shown) | -7.84% |

| Structure (SMILES) | hERG current change (%, negative = inhibition) at 1uM |
| --- | --- |
| CCN1CCN(CCCNC(=O)CCC(=O)N2CCOc3ccc(Cl)cc32)CC1 | 6.48% |
| CCCCC1=NN(C(=O)c2ccco2)C(O)(C(F)(F)F)C1 (stereo not shown) | 5.61% |
| OCCN1CCN(C(=S)Nc2ccc(Oc3ccccc3)cc2)CC1 | -3.32% |
| CCOc1cc(/C=N/NC(=O)c2ccc(NC(=O)C3CC3)cc2)ccc1O | 7.37% |
| CC(C)=CCC/C(C)=C/Cc1c(O)ccc(C(=O)/C=C/c2ccc(O)cc2)c1O | 9.68% |
| CN(NC(=O)C1CC(=O)N(c2ccccc2)C1)C1=NS(=O)(=O)c2ccccc21 (stereo not shown) | 9.36% |
| CCCn1c(=NC(=O)CCS(=O)(=O)c2ccccc2)sc2cc(S(N)(=O)=O)ccc21 | 3.12% |
| O=c1oc2ccccc2nc1/C=C(O)/C=C\c1ccccc1 | 16.2% |
| CCn1ncc(C(=O)Nc2cc(C)on2)c1C | 9.62% |
| CCOC(=O)c1c(NC(=O)CSc2nnc(CNc3ccc(Cl)cc3)o2)sc(C)c1C | 19% |
| CCOC(=O)c1sc2nc(CN3CCN(c4cccc(C(F)(F)F)c4)CC3)[nH]c(=O)c2c1C | 4.4% |
| Cc1cc(C)c2c(CN3CCCCC3)cc(=O)oc2c1 | 16.1% |
| C=CCn1c(CCNC(=O)c2ccccc2F)nnc1SCC(=O)Nc1ccccc1F | 13.7% |
| CC(Oc1ccc(F)cc1)C(=O)N(Cc1ccccc1)c1c(N)n(Cc2ccccc2)c(=O)[nH]c1=O (stereo not shown) | 2.22% |
| N#Cc1nc(COc2ccc(F)cc2)oc1N1CCCC1 | -3.37% |
| CN1/C(=C\C=Nc2cc(S(=O)(=O)N3CCOCC3)ccc2N2CCOCC2)C(C)(C)c2ccccc21 | -49.1% |
| CCCn1c(N)c(Sc2ccc(Cl)cc2)c(=O)n(CCC)c1=O | 13.8% |
| Cc1ccc(-c2cc(C(=O)OCC(=O)N(C)C3CCS(=O)(=O)C3)c3ccccc3n2)o1 (stereo not shown) | 7.38% |
| CCc1ccc(N2C(=O)CC(=O)NC2=O)cc1 | 10.2% |
| Cc1cccc(N2CCN(C(=O)c3cccc(S(=O)(=O)N4CCc5ccccc5C4)c3)CC2C)c1 (stereo not shown) | 13.5% |
| CCc1ccc(NC(=O)C2CCN(S(=O)(=O)c3c(C)noc3C)CC2)cc1 | 14.4% |
| Cc1ccc(NC(=O)C(C)Sc2nnc(C)n2C2CC2)cc1S(=O)(=O)N1CCOCC1 (stereo not shown) | 8.85% |

| Structure (SMILES) | hERG current change (%, negative = inhibition) at 1uM |
| --- | --- |
| O=C1CC(N2CCC(c3nc4ccccc4o3)CC2)C(=O)N1 (stereo not shown) | 4.96% |
| O=C(NCCCn1ccnc1)C1CCN(S(=O)(=O)c2ccc(F)cc2)CC1 | 16.3% |
| CC1CCN(S(=O)(=O)c2ccc(NN=C(C#N)C#N)cc2)CC1 | -7.75% |
| Cc1cc(NC2CCCCC2)nc(N2CCOCC2)n1 | -1.28% |
| Br.O=C(O)Cc1sc(N/N=C\c2ccccc2)nc1-c1ccccc1 | 4.28% |
| COc1ccc(NC(=O)COC(=O)CCc2cc(OC)c(OC)c(OC)c2)c([N+](=O)[O-])c1 | 0.85% |
| COc1cc(OC)c(NS(=O)(=O)c2cc(C(=O)OC(C)C(=O)NC3CC3)c(Cl)cc2Cl)cc1Cl (stereo not shown) | 2.75% |
| O=C1C2C3CCCC3=C3CCCC3C2C(=O)N1c1ccc(Cl)cc1 (stereo not shown) | 9.92% |
| CC(C)=CCN1CCN(Cc2ccc(N3CCNC3=O)cc2)CC1CCO (stereo not shown) | 3.41% |
| C=CCOn1c(=O)c(-c2cccs2)[n+]([O-])c2ccccc21 | -7.47% |
| O=C1CC(N2CCOCC2)C(=O)N1c1ccccc1Cl (stereo not shown) | 0.198% |
| CS(=O)(=O)c1ccc(N2CCN(S(=O)(=O)c3cccs3)CC2)c([N+](=O)[O-])c1 | -31.9% |
| CCN(CC)c1ccc(NC(=O)COc2ccc(N(C)S(=O)(=O)c3cccs3)cc2)cc1 | 8.38% |
| CNc1nc(Nc2ccccc2)nc(OCC(F)(F)F)n1 | 6.56% |
| Cc1ccc(C(=O)N[C@H](C(=O)Nc2cc(Cl)cc(Cl)c2)C(C)C)cc1 | 18% |
| COCCn1c(SCC(=O)Nc2cccc(OC)c2)nnc1-c1ccc(Cl)cc1 | 0.924% |
| Cc1ccc2c(c1)/C(=N/OC(=O)c1ccc(F)cc1)CCS2 | 10.8% |
| O=C(NCCc1ccccc1)c1ccc(OCCOc2ccccc2)cc1 | 16.2% |
| CN(CCCNC(=O)CCCOc1cc(=O)n(C)c2ccccc12)Cc1ccccc1 | -4.24% |
| O=C(COc1ccc(-n2cnnn2)cc1)Nc1cccc(Cl)c1Cl | 16% |
| Cc1ccc(-c2nnn(CCOc3cccc(Br)c3)n2)cc1 | 7.85% |
| Cc1ccc(S(=O)(=O)N/N=C/c2cccs2)cc1 | 0.864% |
